{
  "source": "the supplement of paper PMC10369915",
  "binders": {"B1": {"name": "KCNIP3_Y174_A170S (peptide)", "chain": "WSFNLYDINKD"}, "B2": {"name": "KCNH2_Y611_V612L_YF (peptide)", "chain": "SIKDKYLTALF"}, "B3": {"name": "KCNJ3_Y67 (peptide)", "chain": "SETSRYLSDLF"}, "B4": {"name": "KAT8_Y90_R86G (peptide)", "chain": "GGEEFYVHYVG"}, "B5": {"name": "KCNH2_Y475_Y475C (peptide)", "chain": "NFRTTCVNANE"}, "B6": {"name": "KCNN3_Y268 (peptide)", "chain": "NQNIGYKLGHR"}, "B7": {"name": "KCNH2_Y611_L615F_YF (peptide)", "chain": "SIKDKYVTAFF"}, "B8": {"name": "KCNH2_Y1009_R1005Q (peptide)", "chain": "SQGRQYQELPR"}, "B9": {"name": "KCNH2_Y780 (peptide)", "chain": "LLTALYFISRG"}, "B10": {"name": "KCNJ12_Y427 (peptide)", "chain": "LEQRPYRRESE"}, "B11": {"name": "KCNH2_Y611_D609N (peptide)", "chain": "SIKNKYVTALY"}, "B12": {"name": "KCNIP3_Y174_D179Y_YF (peptide)", "chain": "WAFNLYDINKF"}, "B13": {"name": "KCNH2_Y475_T474I (peptide)", "chain": "NFRTIYVNANE"}, "B14": {"name": "KCNH2_Y611_D609G (peptide)", "chain": "SIKGKYVTALY"}, "B15": {"name": "KARS1_Y145_Y145H (peptide)", "chain": "GKLIFHDLRGE"}, "B16": {"name": "KCNMA1_Y885_E884K (peptide)", "chain": "VGSIKYLKREW"}, "B17": {"name": "KBTBD2_Y250 (peptide)", "chain": "VVQGLYKSMPK"}, "B18": {"name": "KCNIP3_Y174_D179Y (peptide)", "chain": "WAFNLYDINKY"}, "B19": {"name": "KCNH2_Y611_Y611H_YF (peptide)", "chain": "SIKDKHVTALF"}},
  "note": "The other results are listed elsewhere or left out. No stated cut-off is given here; in the data, active = 3.2 or more and inactive = the rest. Most of these values are background signal.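 Further: displayed peptides selected on beads carrying the immobilized SH2 domain, with library peptides lacking any tyrosine serving as negative controls.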",
  "data": [
    {"molecular_target": "SHP2 C-SH2 domain E139D", "test": "enrichment score (SH2-bound / input frequency) (ratio); higher = stronger binding; tyrosines were phosphorylated by kinases first", "conditions": "peptide library: pTyr-Var", "values": [
      {"binder": "B1", "enrichment score": "inactive: 1.17"},
      {"binder": "B2", "enrichment score": "inactive: 1.18"},
      {"binder": "B3", "enrichment score": "inactive: 1.12"},
      {"binder": "B4", "enrichment score": "inactive: 0.759"},
      {"binder": "B5", "enrichment score": "inactive: 0.804"},
      {"binder": "B6", "enrichment score": "inactive: 0.772"},
      {"binder": "B7", "enrichment score": "inactive: 0.827"},
      {"binder": "B8", "enrichment score": "inactive: 0.522"},
      {"binder": "B9", "enrichment score": "inactive: 3.01"},
      {"binder": "B10", "enrichment score": "inactive: 0.308"},
      {"binder": "B11", "enrichment score": "inactive: 1.34"},
      {"binder": "B12", "enrichment score": "inactive: 1.42"},
      {"binder": "B13", "enrichment score": "inactive: 2.04"},
      {"binder": "B14", "enrichment score": "inactive: 0.824"},
      {"binder": "B15", "enrichment score": "inactive: 1.06"},
      {"binder": "B16", "enrichment score": "inactive: 1.07"},
      {"binder": "B17", "enrichment score": "inactive: 0.928"},
      {"binder": "B18", "enrichment score": "inactive: 1.28"},
      {"binder": "B19", "enrichment score": "inactive: 0.58"}
    ]},
    {"molecular_target": "SHP2 C-SH2 domain wild-type", "test": "enrichment score (SH2-bound / input frequency) (ratio); higher = stronger binding; tyrosines were phosphorylated by kinases first", "conditions": "peptide library: pTyr-Var", "values": [
      {"binder": "B1", "enrichment score": "inactive: 0.971"},
      {"binder": "B2", "enrichment score": "inactive: 1.17"},
      {"binder": "B3", "enrichment score": "inactive: 1.08"},
      {"binder": "B4", "enrichment score": "inactive: 0.921"},
      {"binder": "B5", "enrichment score": "inactive: 0.917"},
      {"binder": "B6", "enrichment score": "inactive: 0.781"},
      {"binder": "B7", "enrichment score": "inactive: 0.755"},
      {"binder": "B8", "enrichment score": "inactive: 0.715"},
      {"binder": "B9", "enrichment score": "inactive: 2.89"},
      {"binder": "B10", "enrichment score": "inactive: 0.331"},
      {"binder": "B11", "enrichment score": "inactive: 0.661"},
      {"binder": "B12", "enrichment score": "inactive: 1.22"},
      {"binder": "B13", "enrichment score": "active: 4.32"},
      {"binder": "B14", "enrichment score": "inactive: 0.706"},
      {"binder": "B15", "enrichment score": "inactive: 1.02"},
      {"binder": "B16", "enrichment score": "inactive: 1.01"},
      {"binder": "B17", "enrichment score": "inactive: 0.874"},
      {"binder": "B18", "enrichment score": "inactive: 1.25"},
      {"binder": "B19", "enrichment score": "inactive: 0.567"}
    ]},
    {"molecular_target": "SHP2 N-SH2 domain L43F", "test": "enrichment score (SH2-bound / input frequency) (ratio); higher = stronger binding; tyrosines were phosphorylated by kinases first", "conditions": "peptide library: pTyr-Var", "values": [
      {"binder": "B1", "enrichment score": "inactive: 0.991"},
      {"binder": "B2", "enrichment score": "inactive: 1.09"},
      {"binder": "B3", "enrichment score": "inactive: 0.999"},
      {"binder": "B4", "enrichment score": "inactive: 0.714"},
      {"binder": "B5", "enrichment score": "inactive: 0.907"},
      {"binder": "B6", "enrichment score": "inactive: 0.812"},
      {"binder": "B7", "enrichment score": "active: 6.13"},
      {"binder": "B8", "enrichment score": "inactive: 0.603"},
      {"binder": "B9", "enrichment score": "inactive: 2.92"},
      {"binder": "B10", "enrichment score": "inactive: 0.254"},
      {"binder": "B11", "enrichment score": "inactive: 0.822"},
      {"binder": "B12", "enrichment score": "inactive: 1.71"},
      {"binder": "B13", "enrichment score": "inactive: 1.86"},
      {"binder": "B14", "enrichment score": "inactive: 0.673"},
      {"binder": "B15", "enrichment score": "inactive: 1.25"},
      {"binder": "B16", "enrichment score": "inactive: 1.19"},
      {"binder": "B17", "enrichment score": "inactive: 0.72"},
      {"binder": "B18", "enrichment score": "inactive: 1.32"},
      {"binder": "B19", "enrichment score": "inactive: 0.632"}
    ]},
    {"molecular_target": "SHP2 N-SH2 domain T42A", "test": "enrichment score (SH2-bound / input frequency) (ratio); higher = stronger binding; tyrosines were phosphorylated by kinases first", "conditions": "peptide library: pTyr-Var", "values": [
      {"binder": "B1", "enrichment score": "inactive: 1.18"},
      {"binder": "B2", "enrichment score": "inactive: 0.934"},
      {"binder": "B3", "enrichment score": "inactive: 1.36"},
      {"binder": "B4", "enrichment score": "inactive: 0.758"},
      {"binder": "B5", "enrichment score": "inactive: 0.706"},
      {"binder": "B6", "enrichment score": "inactive: 0.644"},
      {"binder": "B7", "enrichment score": "active: 4.08"},
      {"binder": "B8", "enrichment score": "inactive: 0.628"},
      {"binder": "B9", "enrichment score": "inactive: 2.35"},
      {"binder": "B10", "enrichment score": "inactive: 0.173"},
      {"binder": "B11", "enrichment score": "inactive: 0.689"},
      {"binder": "B12", "enrichment score": "inactive: 1.65"},
      {"binder": "B13", "enrichment score": "active: 7.72"},
      {"binder": "B14", "enrichment score": "inactive: 0.77"},
      {"binder": "B15", "enrichment score": "inactive: 1.18"},
      {"binder": "B16", "enrichment score": "inactive: 1.05"},
      {"binder": "B17", "enrichment score": "inactive: 1.07"},
      {"binder": "B18", "enrichment score": "inactive: 1.16"},
      {"binder": "B19", "enrichment score": "inactive: 0.403"}
    ]},
    {"molecular_target": "SHP2 N-SH2 domain T52S", "test": "enrichment score (SH2-bound / input frequency) (ratio); higher = stronger binding; tyrosines were phosphorylated by kinases first", "conditions": "peptide library: pTyr-Var", "values": [
      {"binder": "B1", "enrichment score": "inactive: 1.03"},
      {"binder": "B2", "enrichment score": "inactive: 1.27"},
      {"binder": "B3", "enrichment score": "inactive: 1.01"},
      {"binder": "B4", "enrichment score": "inactive: 0.714"},
      {"binder": "B5", "enrichment score": "inactive: 0.652"},
      {"binder": "B6", "enrichment score": "inactive: 0.838"},
      {"binder": "B7", "enrichment score": "active: 7.75"},
      {"binder": "B8", "enrichment score": "inactive: 0.44"},
      {"binder": "B9", "enrichment score": "inactive: 2.54"},
      {"binder": "B10", "enrichment score": "inactive: 0.18"},
      {"binder": "B11", "enrichment score": "inactive: 0.905"},
      {"binder": "B12", "enrichment score": "inactive: 1.27"},
      {"binder": "B13", "enrichment score": "inactive: 1.91"},
      {"binder": "B14", "enrichment score": "inactive: 0.673"},
      {"binder": "B15", "enrichment score": "inactive: 1.12"},
      {"binder": "B16", "enrichment score": "inactive: 0.982"},
      {"binder": "B17", "enrichment score": "inactive: 0.877"},
      {"binder": "B18", "enrichment score": "inactive: 1.16"},
      {"binder": "B19", "enrichment score": "inactive: 0.483"}
    ]},
    {"molecular_target": "SHP2 N-SH2 domain wild-type", "test": "enrichment score (SH2-bound / input frequency) (ratio); bacterial display of known human phosphotyrosine sites (pTyr-Var adds point mutants) read by sequencing; higher = stronger binding; tyrosines were phosphorylated by kinases first", "conditions": "peptide library: pTyr-Var", "values": [
      {"binder": "B1", "enrichment score": "inactive: 1.14"},
      {"binder": "B2", "enrichment score": "inactive: 1.14"},
      {"binder": "B3", "enrichment score": "inactive: 1.03"},
      {"binder": "B4", "enrichment score": "inactive: 0.776"},
      {"binder": "B5", "enrichment score": "inactive: 1.09"},
      {"binder": "B6", "enrichment score": "inactive: 0.981"},
      {"binder": "B7", "enrichment score": "active: 3.24"},
      {"binder": "B8", "enrichment score": "inactive: 0.573"},
      {"binder": "B9", "enrichment score": "inactive: 2.92"},
      {"binder": "B10", "enrichment score": "inactive: 0.126"},
      {"binder": "B11", "enrichment score": "inactive: 0.772"},
      {"binder": "B12", "enrichment score": "inactive: 1.02"},
      {"binder": "B13", "enrichment score": "inactive: 1.75"},
      {"binder": "B14", "enrichment score": "inactive: 0.678"},
      {"binder": "B15", "enrichment score": "inactive: 1.15"},
      {"binder": "B16", "enrichment score": "inactive: 1.05"},
      {"binder": "B17", "enrichment score": "inactive: 0.933"},
      {"binder": "B18", "enrichment score": "inactive: 1.14"},
      {"binder": "B19", "enrichment score": "inactive: 0.524"}
    ]}
  ]
}
